The target of data set [1] is T1, PB1-mAG1-MDM2.
T1 construct: also called PB1-hmAG1-MDM2
Put plainly: fluorescent foci in HEK293 cells, combination (B); extinguished by 40 uM Nutlin-3.

Data set [2] deals with the molecule itself. Nature of the data set: fluorescent foci in HEK293 cells; homomultimer formation of p53.
Data set [3] deals with the molecule itself. Nature of the data set: fluorescent foci in HEK293 cells; homodimer induced by 500 nM B/B Homodimerizer.
Data set [4] concerns the molecule itself. Put plainly: fluorescent foci in U2OS cells; homomultimer formation of p53.
The next data set deals with PB1-MDM2. Nature of the data set: fluorescent foci in HEK293 cells; extinguished by 40 uM Nutlin-3.
Data set [5] deals with T1, PB1-mAG1-MDM2. Put plainly: fluorescent foci in HEK293 cells, combination (A); extinguished by 40 uM Nutlin-3.
Data set [6] deals with the molecule itself. Put plainly: icy spot detection of fluorescent foci in HEK293 cells, when foci started to be seen after B/B Homodimerizer addition.

B1: p53(70)-PB1-mAG1 (other, not shown: small tags and cut ends)
chain: [about 60 residues not written out]PGPDEAPRMPEAAMASLTVKAYLLGKEDAAREIRRFSFCCSPEPEAEAEAAAGPGPCERLLSRVAALFPALRPGGFQAHYRDEDGDLVAFSSDEELTMAMSYVKDDIFRIYIKEKTGNSADGGGGSGGSGGSGGGSTQGTSMVSVIKPEMKIKLCMRGTVNGHNFVIEGEGKGNPYEGTQILDLNVTEGAPLPFAYDILTTVFQYGNRAFTKYPADIQDYFKQTFPEGYHWERSMTYEDQGICTATSNISMRGDCFFYDIRFDGTNFPPNGPVMQKKTLKWEPSTEKMYVEDGVLKGDVNMRLLLEGGGHYRCDFKTTYKAKKEVRLPDAHKIDHRIEILKHDKDYNKVKLYENAVARYSMLPSQAK
notes: also called p53(70)-PB1-hmAG1
Turning to B1, in the data set with PB1-mAG1-MDM2 [1], the binding result is reported as “binds”.

B2: PKCi-mAG1-p53 (other, not shown: small tags and cut ends)
chain: MQVRVKAYYRGDIMITHFEPSISFEGLCNEVRDMCSFDNEQLFTMKWIDEEGDPCTVSSQLELEEAFRLYELNKDSELLIHVFPCTGNSADGGGGSGGSGGSGGGSTQGTSMVSVIKPEMKIKLCMRGTVNGHNFVIEGEGKGNPYEGTQILDLNVTEGAPLPFAYDILTTVFQYGNRAFTKYPADIQDYFKQTFPEGYHWERSMTYEDQGICTATSNISMRGDCFFYDIRFDGTNFPPNGPVMQKKTLKWEPSTEKMYVEDGVLKGDVNMRLLLEGGGHYRCDFKTTYKAKKEVRLPDAHKIDHRIEILKHDKDYNKVKLYENAVARYSMLPSQAK[about 400 residues not written out]
notes: whole, on cells; also called PKCi-hmAG1-p53
Regarding B2, the binding result in data set [2] is given as “binds”.

B3: Tankyrase-mAG1-FKBP12 mutant (other, not shown: small tags and cut ends)
chain: MLIDAMPPEALPTCFKPQATVVSASLISPASTPSCLSAASSIDNLTGPLAELAVGGASNAGDGAAGTERKEGEVAGLDMNISQFLKSLGLEHLRDIFETEQITLDVLADMGHEELKEIGINAYGHRHKLIKGVERLLGGQQGTNPYLTFHCVNQGTILLDLAPEDKEYQSVEEEMQSTIREHRDGGNAGGIFNRYNVIRITGNSADGGGGSGGSGGSGGGSTQGTSMVSVIKPEMKIKLCMRGTVNGHNFVIEGEGKGNPYEGTQILDLNVTEGAPLPFAYDILTTVFQYGNRAFTKYPADIQDYFKQTFPEGYHWERSMTYEDQGICTATSNISMRGDCFFYDIRFDGTNFPPNGPVMQKKTLKWEPSTEKMYVEDGVLKGDVNMRLLLEGGGHYRCDFKTTYKAKKEVRLPDAHKIDHRIEILKHDKDYNKVKLYENAVARYSMLPSQA[about 100 residues not written out]
notes: also called Tankyrase-mAG1-FKBP12 (F36V); Tankyrase-hmAG1-FKBP12 mutant
Take B3: the binding result in data set [3] is recorded as “binds”.

B4: mAG1-PB1-p53 (other, not shown: small tags and cut ends)
chain: MVSVIKPEMKIKLCMRGTVNGHNFVIEGEGKGNPYEGTQILDLNVTEGAPLPFAYDILTTVFQYGNRAFTKYPADIQDYFKQTFPEGYHWERSMTYEDQGICTATSNISMRGDCFFYDIRFDGTNFPPNGPVMQKKTLKWEPSTEKMYVEDGVLKGDVNMRLLLEGGGHYRCDFKTTYKAKKEVRLPDAHKIDHRIEILKHDKDYNKVKLYENAVARYSMLPSQAKTSNSADGGGGSGGSGGSGGGSTQGTGMASLTVKAYLLGKEDAAREIRRFSFCCSPEPEAEAEAAAGPGPCERLLSRVAALFPALRPGGFQAHYRDEDGDLVAFSSDEELTMAMSYVKDDIFRIYIKEK[about 400 residues not written out]
notes: whole, on cells; Expressed inside U2OS cells; also called hmAG1-PB1-p53
For B4, in data set [4], the binding result is listed as “binds”.

B5: p53(70)-mAG1-PB1 (other, not shown: small tags and cut ends)
chain: [about 60 residues not written out]PGPDEAPRMPEAAMVSVIKPEMKIKLCMRGTVNGHNFVIEGEGKGNPYEGTQILDLNVTEGAPLPFAYDILTTVFQYGNRAFTKYPADIQDYFKQTFPEGYHWERSMTYEDQGICTATSNISMRGDCFFYDIRFDGTNFPPNGPVMQKKTLKWEPSTEKMYVEDGVLKGDVNMRLLLEGGGHYRCDFKTTYKAKKEVRLPDAHKIDHRIEILKHDKDYNKVKLYENAVARYSMLPSQAKTSNSADGGGGSGGSGGSGGGSTQGTGMASLTVKAYLLGKEDAAREIRRFSFCCSPEPEAEAEAAAGPGPCERLLSRVAALFPALRPGGFQAHYRDEDGDLVAFSSDEELTMAMSYVKDDIFRIYIKEK
notes: also called p53(70)-hmAG1-PB1
For B5, the binding result in the data set with PB1-MDM2 and with PB1-mAG1-MDM2 [5] was “binds” in each case.

B6: Tankyrase-mAG1-p53 (other, not shown: small tags and cut ends)
chain: MLIDAMPPEALPTCFKPQATVVSASLISPASTPSCLSAASSIDNLTGPLAELAVGGASNAGDGAAGTERKEGEVAGLDMNISQFLKSLGLEHLRDIFETEQITLDVLADMGHEELKEIGINAYGHRHKLIKGVERLLGGQQGTNPYLTFHCVNQGTILLDLAPEDKEYQSVEEEMQSTIREHRDGGNAGGIFNRYNVIRITGNSADGGGGSGGSGGSGGGSTQGTSMVSVIKPEMKIKLCMRGTVNGHNFVIEGEGKGNPYEGTQILDLNVTEGAPLPFAYDILTTVFQYGNRAFTKYPADIQDYFKQTFPEGYHWERSMTYEDQGICTATSNISMRGDCFFYDIRFDGTNFPPNGPVMQKKTLKWEPSTEKMYVEDGVLKGDVNMRLLLEGGGHYRCDFKTTYKAKKEVRLPDAHKIDHRIEILKHDKDYNKVKLYENAVARYSMLPSQAK[about 400 residues not written out]
notes: whole, on cells; also called Tankyrase-hmAG1-p53
Take B6: the binding result in data set [2] was “binds”.

B7: PB1-mCherry-FKBP12 mutant (other)
chain: MASLTVKAYLLGKEDAAREIRRFSFCCSPEPEAEAEAAAGPGPCERLLSRVAALFPALRPGGFQAHYRDEDGDLVAFSSDEELTMAMSYVKDDIFRIYIKE[about 100 residues not written out]
notes: also called PB1-mCherry-FKBP12 (F36V); not shown: mCherry fluorescent protein, Genbank AAV52164
Turning to B7, the binding result in data set [3] was “binds”.

B8: DGKd-mAG1-p53 (other, not shown: small tags and cut ends)
chain: MPVHLWGTEEVAAWLEHLSLCEYKDIFTRHDIRGSELLHLERRDLKDLGVTKVGHMKRILCGIKELSRSTGNSADGGGGSGGSGGSGGGSTQGTSMVSVIKPEMKIKLCMRGTVNGHNFVIEGEGKGNPYEGTQILDLNVTEGAPLPFAYDILTTVFQYGNRAFTKYPADIQDYFKQTFPEGYHWERSMTYEDQGICTATSNISMRGDCFFYDIRFDGTNFPPNGPVMQKKTLKWEPSTEKMYVEDGVLKGDVNMRLLLEGGGHYRCDFKTTYKAKKEVRLPDAHKIDHRIEILKHDKDYNKVKLYENAVARYSMLPSQAK[about 400 residues not written out]
notes: whole, on cells; also called DGKd-hmAG1-p53
As to B8, the binding result in data set [2] was “binds”.

B9: TEL-mAG1-p53 (other, not shown: small tags and cut ends)
chain: MPRALRMEEDSIRLPAHLRLQPIYWSRDDVAQWLKWAENEFSLRPIDSNTFEMNGKALLLLTKEDFRYRSPHSGDVLYELLQHILKQRTGNSADGGGGSGGSGGSGGGSTQGTSMVSVIKPEMKIKLCMRGTVNGHNFVIEGEGKGNPYEGTQILDLNVTEGAPLPFAYDILTTVFQYGNRAFTKYPADIQDYFKQTFPEGYHWERSMTYEDQGICTATSNISMRGDCFFYDIRFDGTNFPPNGPVMQKKTLKWEPSTEKMYVEDGVLKGDVNMRLLLEGGGHYRCDFKTTYKAKKEVRLPDAHKIDHRIEILKHDKDYNKVKLYENAVARYSMLPSQAK[about 400 residues not written out]
notes: whole, on cells; also called TEL-hmAG1-p53
With B9, the binding result in data set [2] is “binds”.

B10: p53-mAG1-PB1 (other, not shown: small tags and cut ends)
chain: [about 400 residues not written out]MVSVIKPEMKIKLCMRGTVNGHNFVIEGEGKGNPYEGTQILDLNVTEGAPLPFAYDILTTVFQYGNRAFTKYPADIQDYFKQTFPEGYHWERSMTYEDQGICTATSNISMRGDCFFYDIRFDGTNFPPNGPVMQKKTLKWEPSTEKMYVEDGVLKGDVNMRLLLEGGGHYRCDFKTTYKAKKEVRLPDAHKIDHRIEILKHDKDYNKVKLYENAVARYSMLPSQAKTSNSADGGGGSGGSGGSGGGSTQGTGMASLTVKAYLLGKEDAAREIRRFSFCCSPEPEAEAEAAAGPGPCERLLSRVAALFPALRPGGFQAHYRDEDGDLVAFSSDEELTMAMSYVKDDIFRIYIKEK
notes: whole, on cells; Expressed inside U2OS cells; also called p53-hmAG1-PB1
Regarding B10, the binding result in data set [4] is “binds”.

B11: PB1-mAG1-FKBP12 mutant (other, not shown: small tags and cut ends)
chain: MASLTVKAYLLGKEDAAREIRRFSFCCSPEPEAEAEAAAGPGPCERLLSRVAALFPALRPGGFQAHYRDEDGDLVAFSSDEELTMAMSYVKDDIFRIYIKEKTGNSADGGGGSGGSGGSGGGSTQGTSMVSVIKPEMKIKLCMRGTVNGHNFVIEGEGKGNPYEGTQILDLNVTEGAPLPFAYDILTTVFQYGNRAFTKYPADIQDYFKQTFPEGYHWERSMTYEDQGICTATSNISMRGDCFFYDIRFDGTNFPPNGPVMQKKTLKWEPSTEKMYVEDGVLKGDVNMRLLLEGGGHYRCDFKTTYKAKKEVRLPDAHKIDHRIEILKHDKDYNKVKLYENAVARYSMLPSQA[about 100 residues not written out]
notes: Expressed in HEK293 cells; Homodimer forms only through the drug B/B Homodimerizer (AP20187); also called PB1-hmAG1-FKBP12 mutant
Take B11: the “fluorescence intensity of foci relative to before the B/B Homodimerizer addition” value in data set [6] was 1.9 times.

The values above are taken from US20170122932A1 (MEDICAL AND BIOLOGICAL LABORATORIES, published 2017).
